The list shows a part of the results. The full chains were built here from the parent and the listed change. Inactive controls read about 0.05.
B1: TEV protease; numbered along this chain (parent)
chain: MGESLFKGPRDYNPISSSICHLTNESDGHTTSLYGIGFGPFIITNKHLFRRNNGTLVVQSLHGVFKVKDTTTLQQHLVDGRDMIIIRMPKDFPPFPQKLKFREPQREERICLVTTNFQTKSMSSMVSDTSCTFPSGDGIFWKHWIQTKDGQCGSPLVSTRDGFIVGIHSASNFTNTNNYFTSVPKNFMELLTNQEAQQWVSGWRLNADSVLWGGHKVFMVKPEEPFQPVKEATQL

Variants of: B1
Test: raw area under fraction-flipped curve 0-4 h after induction (AUC4h, not background-subtracted), DNA-recorder readout of cleavage of the substrate (dimensionless); higher = more cleavage of the substrate by the protease variant
Settings: temperature: 34 °C; time window: 0-4 h after rhamnose induction
Procedure: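 In vivo DNA recorder in E. coli TOP10(DE3) ΔrhaA at 34 °C. Each TEVp single-site mutant (parent TEVp 0) is paired with a single-site variant of the 7-mer TEVs (canonical ENLYFQ|S). The substrate sits between flexible linkers in a Bxb1-sfGFP-TEVs-SsrA fusion, so cleavage stabilises Bxb1 and speeds flipping of a recombination array, read by NGS. The value is the raw area under the fraction-flipped curve over 0-4 h after rhamnose induction (AUC4h), with ≥20 reads per time point. It is not background-subtracted; inactive controls average about 0.047.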
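Also: Bxb1 expression induced with 0.2% (w/v) L-rhamnose at OD600 near 0.5, cultures sampled hourly, flipped fraction per protease–substrate barcode pair counted by paired-end Illumina sequencing.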

Row | Variant | area with substrate ENAYFQS | area with substrate ENIYFQS | area with substrate ENKYFQS | area with substrate ENQYFQS | area with substrate ENRYFQS | area with substrate ENSYFQS | area with substrate ENYYFQS | area with substrate ENDYFQS | area with substrate ENEYFQS | area with substrate ENGYFQS | area with substrate ENHYFQS | area with substrate ENMYFQS | area with substrate ENNYFQS | area with substrate ENTYFQS | area with substrate ENCYFQS | area with substrate ENFYFQS | area with substrate ENVYFQS | area with substrate ENWYFQS | area with substrate ENPYFQS
1 | MGESLFKGPRDYNPISSSICHLTNESDGHTTSLYGIGFGPFIITNKHLFSRNNGTLVVQSLHGVFKVKDTTTLQQHLVDGRDMIIIRMPKDFPPFPQKLKFREPQREERICLVTTNFQTKSMSSMVSDTSCTFPSGDGIFWKHWIQTKDGQCGSPLVSTRDGFIVGIHSASNFTNTNNYFTSVPKNFMELLTNQEAQQWVSGWRLNADSVLWGGHKVFMVKPEEPFQPVKEATQL [R50S] | 0.0431 | 0.0996 | 0.0669 | 0.0604 | 0.0558 | 0.0231 | 0.0441 |  |  |  |  |  |  |  |  |  |  |  | 
2 | MGESLFMGPRDYNPISSSICHLTNESDGHTTSLYGIGFGPFIITNKHLFRRNNGTLVVQSLHGVFKVKDTTTLQQHLVDGRDMIIIRMPKDFPPFPQKLKFREPQREERICLVTTNFQTKSMSSMVSDTSCTFPSGDGIFWKHWIQTKDGQCGSPLVSTRDGFIVGIHSASNFTNTNNYFTSVPKNFMELLTNQEAQQWVSGWRLNADSVLWGGHKVFMVKPEEPFQPVKEATQL [K7M] | 0.0474 |  | 0.0555 | 0.0789 |  | 0.0647 |  | 0.0626 | 0.0595 | 0.0619 | 0.0682 | 0.0719 | 0.0662 | 0.0537 |  |  |  |  | 
3 | MGESLFKGPRDYNPISSSICHLTNESDGHTTSLYGIGFGPFIITNKHLFRRNNGTLVVQSLHGVFKVKDTTTLQQHLVDGRDMIIIRMPKDFPPFPQKLKFREPQRERRICLVTTNFQTKSMSSMVSDTSCTFPSGDGIFWKHWIQTKDGQCGSPLVSTRDGFIVGIHSASNFTNTNNYFTSVPKNFMELLTNQEAQQWVSGWRLNADSVLWGGHKVFMVKPEEPFQPVKEATQL [E108R] | 0.0496 | 0.0626 | 0.06 | 0.0573 | 0.0489 | 0.0533 |  | 0.0584 |  |  | 0.0438 |  | 0.043 | 0.0456 | 0.0495 | 0.0549 | 0.0583 |  | 
4 | MGESLFKGPRDYNPISSSICHLTNESDGHTTSLYGIGFGPFIITNKHLFRENNGTLVVQSLHGVFKVKDTTTLQQHLVDGRDMIIIRMPKDFPPFPQKLKFREPQREERICLVTTNFQTKSMSSMVSDTSCTFPSGDGIFWKHWIQTKDGQCGSPLVSTRDGFIVGIHSASNFTNTNNYFTSVPKNFMELLTNQEAQQWVSGWRLNADSVLWGGHKVFMVKPEEPFQPVKEATQL [R51E] | 0.0611 |  |  | 0.0663 |  |  | 0.0566 | 0.0567 | 0.0611 | 0.0745 | 0.0602 | 0.0947 | 0.0579 | 0.0634 | 0.0662 | 0.0666 | 0.073 | 0.0631 | 
5 | MGESLFKGPRDYNPISSSICHLTNESDGHTMSLYGIGFGPFIITNKHLFRRNNGTLVVQSLHGVFKVKDTTTLQQHLVDGRDMIIIRMPKDFPPFPQKLKFREPQREERICLVTTNFQTKSMSSMVSDTSCTFPSGDGIFWKHWIQTKDGQCGSPLVSTRDGFIVGIHSASNFTNTNNYFTSVPKNFMELLTNQEAQQWVSGWRLNADSVLWGGHKVFMVKPEEPFQPVKEATQL [T31M] | 0.0481 |  | 0.0503 | 0.0427 |  | 0.0587 | 0.0591 | 0.0625 | 0.0712 | 0.0612 | 0.0598 |  | 0.062 | 0.0684 | 0.0663 | 0.0684 | 0.0806 |  | 0.063
6 | MGESLFKGPRDYNPISSSICHLTNESDGHTTSLYGIGFGPFIITNKHLFRRNNGTLVVQSLHGVFKVKDTTTLQQHLVDGRDMIIIRMPKDFPPFPQKLKFREPQREERICLVTTNFQTKSMSSMVSDTSCTFPSGDGIFWKHWIQTKDGQCGSPLVSTRDGFIVGIHSASNFTNTWNYFTSVPKNFMELLTNQEAQQWVSGWRLNADSVLWGGHKVFMVKPEEPFQPVKEATQL [N177W] | 0.051 |  |  | 0.0568 |  |  | 0.0573 |  |  |  | 0.0666 | 0.0624 | 0.0245 | 0.0612 |  |  |  |  | 
7 | MGESLFKGPRDYNPISSSICHLTNESDGHTTSLYGIGFGPFIITNKHLFRRNNGTLVVQSLHGVFKVKDTTTLQQHLVDGRDMIIIRMPKDFPPFPQKLKFREPQREERICLVTTNFQTKSMSSMVSDTSCTFPSGDGIFWKHWIQTKDGQCGSPLVSTRDYFIVGIHSASNFTNTNNYFTSVPKNFMELLTNQEAQQWVSGWRLNADSVLWGGHKVFMVKPEEPFQPVKEATQL [G162Y] | 0.063 |  | 0.0832 | 0.0674 | 0.0514 | 0.0589 | 0.0559 | 0.0548 | 0.069 |  | 0.0546 |  |  | 0.0325 |  | 0.0729 | 0.0544 | 0.0412 | 
8 | MGESLFKGPRDYNPISSSICHLTNESDGHTTSLYGIGFGPFIITNKHLFRRNNGTLVVQSLHGVFKVKDTTTLQQHLVDGRDMIIIRMPKDFPPFPQKLKFREPQREERICLVTTNFQTKSMSSMVSDTSCTFPSGDGIFWKHWIQTKDGQCGSPLVSTRDEFIVGIHSASNFTNTNNYFTSVPKNFMELLTNQEAQQWVSGWRLNADSVLWGGHKVFMVKPEEPFQPVKEATQL [G162E] | 0.0599 |  | 0.0713 | 0.0951 | 0.0387 |  |  | 0.0694 | 0.0547 |  | 0.0708 |  |  | 0.0485 | 0.0533 |  |  | 0.0646 | 0.0575
9 | MGESLFKGPRDYNPISSSICHLTNESDGHTTSLYGIGFGPFIITNKHLFRRNNGTLVVQSLHGVFKVKDTTTLQQHLVDGRDMIIIRMPKDFPPFPQKLKFREPQREERICLVTTNFQTKSMSSMVSDTSCTSPSGDGIFWKHWIQTKDGQCGSPLVSTRDGFIVGIHSASNFTNTNNYFTSVPKNFMELLTNQEAQQWVSGWRLNADSVLWGGHKVFMVKPEEPFQPVKEATQL [F133S] | 0.0633 |  | 0.0625 | 0.0597 | 0.0461 | 0.073 |  | 0.0575 | 0.0604 |  | 0.067 |  |  | 0.0723 | 0.0749 |  |  | 0.0509 | 0.0662
10 | MGESLFKGPRDYNPISSSICHLTNESDGHTTSLYGIGFGPFIITNKHLFRRNNGTLVVQSLHGVFKVKDTTTLQQHLVDGRDMIIIRMPKDFPPFPQKLKFREPQREERICLVTTNFQTKSMSSMVSDTSCTFPSGDGIFWKHWIQTKDGQCGSPLVSTRDGFIVGIHSASNFTNTNNYFTSVPKNFMELLTNQEAHQWVSGWRLNADSVLWGGHKVFMVKPEEPFQPVKEATQL [Q197H] | 0.0797 |  | 0.083 | 0.0618 |  |  |  | 0.0559 |  |  |  |  |  |  | 0.0689 |  | 0.0698 |  | 
